Test results published in PubChem BioAssay AID651820 (National Center for Advancing Translational Sciences (NCATS), 2012).
Screen size: about 340,000 compounds; about 12,000 (3.5%) were called active. Inconclusive means that the source gave no clear call. Such entries were picked first, then a sample of the others. The call rests on the fitted dose curve; in most records, active means well fitted inhibition curve with a large enough effect; inconclusive means small, poorly fitted or top-dose-only effect, or another doubt; inactive means no such curve, though single readings can be large or run the other way. No potency is given beside an inconclusive call; the fits are too rough.

Test: qHTS Assay for Inhibitors of Hepatitis C Virus (HCV)
Settings: Huh7.5.1 HCVcc-Cre (HCVcc is cell-culture hepatitis C virus) infection, luciferase reporter, 44 h; activity change, negative = inhibition: at 41.8 µM (top of the series) unless noted
Procedure, shortened: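 Whole-lifecycle infectious HCVcc-Cre system; cells 1,000/well, compound then virus (~0.5 moi) added 4 h after plating, 44 h culture. Luciferase read 15 sec following 15 min substrate incubation, room temp.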
On the % scale 0 is the no-effect control and ±100 the full control effect; potency means the concentration at half of the fitted maximal effect; tags describe the fitted curve by direction and shape.

Row | SMILES | Potency | activity change, negative = inhibition
1 | O=C(NCc1ccccn1)c1cc(S(=O)(=O)N2CCN(c3ccccc3)CC2)ccc1Cl | inconclusive [inhibitor, single point] | 
2 | Cc1ccc(Cn2c(=O)c3ccccc3n3c(SCC(=O)N4CCCCC4C)nnc23)cc1 (configuration not stated) | inconclusive [inhibitor, single point] | 
3 | Cn1c(CSc2nc3ccccc3s2)nc2ccccc21 | inconclusive [inhibitor, single point] | 
4 | O=C(N1CCOCC1)N1CCN(C(c2ccccc2)c2ccccc2)CC1 |  | inactive: -6.97%
5 | Cc1ccc(Nc2cnn(C34CC5CC(CC(CC(=O)O)(C5)C3)C4)c(=O)c2Cl)cc1C |  | inactive: 9.06%
6 | Cc1oc2c(C)c3oc(=O)c(CCC(=O)N4CCC(C(=O)NCCC(=O)O)(c5ccccc5)CC4)c(C)c3cc2c1C | inconclusive [inhibitor, single point] | 
7 | Cc1ccc(-c2ccnc(-c3ccc(O)cc3)n2)cc1 | inconclusive [inhibitor, single point] | 
8 | COc1ccc(S(=O)(=O)N2CCCCCC2)cc1C(=O)NCCOc1ccc(C)cc1 | inconclusive [inhibitor, single point] | 
9 | N#CC1=C(N)Oc2cc(Nc3ccccc3)ccc2C1c1ccncc1 (configuration not stated) | inconclusive [inhibitor, single point] | 
10 | CCn1ncc(C2=NOC(C(=O)Nc3cnn(C45CC6CC(CC(C6)C4)C5)c3)C2)c1C (configuration not stated) |  | inactive: -22.7%
11 | CCC(C)Nc1nc(Cl)nc(NCCOc2ccccc2)n1 (configuration not stated) | inconclusive [inhibitor, single point] | 
12 | O=C(/C=C/Nc1ccc(F)c(F)c1)c1cccs1 |  | inactive: 5.39%
13 | COc1ccc(NC(=O)C(=O)NCCC2CCCCN2S(=O)(=O)c2ccc(F)cc2)cc1 (configuration not stated) | inconclusive [inhibitor, partial curve] | 
14 | COc1ccc(OC)c(CNC(=O)CCCc2cn(C)c3ccccc23)c1 | inconclusive [inhibitor, single point] | 
15 | COc1cc(/C=N/NC(=O)c2ccc(N)cc2)ccc1OC(=O)c1cccc(C)c1 | inconclusive [inhibitor, single point] | 
16 | CC(=O)Nc1cccc(NC(=O)CCn2c(=O)sc3ccccc32)c1 |  | inactive: 2.37%
17 | COc1cc2c(cc1OC)CN(c1ccc3ccccc3n1)CC2 | active: 12.6 µM | 
18 | Cc1cccc(C)c1NC(=O)CNc1ncnc2sc(C)c(C)c12 | inconclusive [inhibitor, single point] | 
19 | COc1cc2c(cc1CNC[C@H]1O[C@@H](n3cnc4c(N)ncnc43)[C@H](O)[C@@H]1O)OCO2 |  | inactive: -7.9%
20 | COc1ccc(CCNCC(O)c2ccccc2)cc1 (configuration not stated) |  | inactive: 18.5%
21 | O=C(CSc1cccc2cccnc12)N/N=C/c1cccc(O)c1 | inconclusive [inhibitor, single point] | 

Row | SMILES | Potency | activity change, negative = inhibition
22 | CCCCn1nc2cc(C(=O)NCc3ccc4c(c3)OCO4)ccc2c1OCC | inconclusive [inhibitor, partial curve] | 
23 | O=C(Nc1cccc(F)c1)N1CCC(n2c(=O)[nH]c3ccccc32)CC1 |  | inactive: -17.1%
24 | CC1CC(C)CN(c2nc(N(C)c3ccccc3)nc(N)c2[N+](=O)[O-])C1 (configuration not stated) | inconclusive [inhibitor, single point] | 
25 | CCOc1ccc(-c2nnc(N3CCOCC3)c3ccccc23)cc1 | inconclusive [inhibitor, single point] | 
26 | COc1ccc(-n2nc(C(=O)NCC(=O)N3CCN(c4ccc(F)cc4)CC3)c3ccccc3c2=O)c(OC)c1 | inconclusive [inhibitor, single point] | 
27 | Cc1ccc(-c2cccc(CN3CCN(C4CCN(C(C)C)CC4)C(CCO)C3)c2)o1 (configuration not stated) | active: 5.01 µM | 
28 | COc1ccc(-c2nn(-c3ccccc3)cc2CO)cc1OC | inconclusive [inhibitor, single point] | 
29 | CCc1ccc(-c2nc(CSCC(=O)NC3CC3)c(C)o2)cc1 | inconclusive [inhibitor, single point] | 
30 | O=C(Cn1cnc2sc(-c3ccccc3)cc2c1=O)NCCc1ccccc1 | inconclusive [inhibitor, full curve, poor fit] | 
31 | O=C(NCCCN1CCOCC1)c1ccc2c(=O)n(-c3ccc(F)c(Cl)c3)c(=S)[nH]c2c1 | inconclusive [inhibitor, full curve] | 
32 | COc1ccc(S(=O)(=O)N(C)C[C@@H]2Oc3ccc(NC(=O)Nc4c(C)noc4C)cc3C(=O)N([C@H](C)CO)C[C@@H]2C)cc1 | inconclusive [inhibitor, full curve, poor fit] | 
33 | CCn1c(=NC(=O)CS(=O)(=O)c2ccc(F)cc2)sc2cccc(OC)c21 | inconclusive [inhibitor, partial curve] | 
34 | Cc1cccc(N(Cc2cc3ccc(C)cc3[nH]c2=O)C(=O)c2ccco2)c1 | inconclusive [inhibitor, single point] | 
35 | COc1ccc(C(C)=O)cc1Cn1cnc2c(cnn2C)c1=O |  | inactive: 14.8%
36 | Cc1cc(C)c2c(c1)OC(=O)CC2c1ccc2c(c1)OCO2 (configuration not stated) | inconclusive [inhibitor, partial curve] | 
37 | CCN(CC)c1ccc([N+](=O)[O-])c2cccnc12 | inconclusive [inhibitor, single point] | 
38 | COc1ccc(C(=O)/C=C/c2ccc(O)cc2)c(O)c1C/C=C(\C)CCC=C(C)C | inconclusive [inhibitor, partial curve] | 
39 | CCOC(=O)Nc1ccc2c(CN3CCN(S(=O)(=O)c4ccc(C(C)C)cc4)CC3)cc(=O)oc2c1 | inconclusive [inhibitor, single point] | 
40 | CCCNC(=S)N(Cc1cc2cc(C)ccc2n2nnnc12)CC(C)(C)CN(C)C | inconclusive [inhibitor, single point] | 
41 | CCN(CC)CCOC(=O)C1(c2ccccc2)CCCC1 | inconclusive [inhibitor, full curve, poor fit] | 
42 | O=C(NC(=S)Nc1ccc(N2CCOCC2)cc1)c1cccc(Cl)c1 | active: 25.1 µM | 
